According to the RNAGym collection of RNA variant scans (doi:10.7554/elife.90254):
The source gives no read counts; variants with many changes may rest on few reads.

B1: OR4K15 (parent)
chain: GUUAACGGUCAUAGGCCAUGGAAACUAGGAGCACCAUUUCGCUGCCAGUGAAGAAAUGAACAAAGAAAAUCUGGGCCAGGCAGGCAUCAAAAGAAAUAGUCUUGCGCUCAACCAGAAAGUCUGUAAUCAUUUUAAGGGUA

Variants of: B1
Test: self-cleavage, relative activity (ratio to wild type); higher = more cleavage; in vitro, sequencing; the parent is a self-cleaving ribozyme
For U49C A56G A66G A110U, the self-cleavage was 0.43.
In the case of A47U A55G U72A, the self-cleavage is reported as 0.03.
Variant U49A A78U A114U has a self-cleavage of 0.02.
In the case of U49C A78U U132C, the self-cleavage is reported as 0.17.
U49C A60G U131C gave a self-cleavage of 0.52.
With U49C C61G U72A C88U A90G A98G U122A A129G the self-cleavage was 0.01.
With C45G A67G A90G U122A the self-cleavage was 0.61.
In the case of C46A A114C A118G, the self-cleavage is reported as 0.04.
In the case of U49C A98G A125G, the self-cleavage is reported as 0.07.
Variant U49C U87C U103A has a self-cleavage of 0.57.
A51G A55G C105U showed a self-cleavage of 0.08.
A51G A63G U100G U103A A118G gave a self-cleavage of 0.07.
A47G A56G C105A showed a self-cleavage of 0.03.
G44A U70C A134G gave a self-cleavage of 0.27.
A47G U72C A116G showed a self-cleavage of 0.12.
A47U A96G U122C gave a self-cleavage of 1.1.
Variant A47G A67G A90G A96G U100C has a self-cleavage of 1.34.
In the case of A47G A78G A95G U124C, the self-cleavage is reported as 0.1.
For U49C A51G A60C A118G, the self-cleavage was 1.55.
Variant A51G A63G A117G has a self-cleavage of 2.51.
G50A U103A A135G A140G gave a self-cleavage of 0.6.
In the case of A47U A67G C109A A118U, the self-cleavage is reported as 0.04.
With A51G A67G U122A the self-cleavage was 1.87.
C46U A89U A92G showed a self-cleavage of 0.75.
In the case of U49C A52G A64U A126G, the self-cleavage is reported as 1.11.
U49C A66G C105A gave a self-cleavage of 0.01.
Variant A47U A56G A64C C112A has a self-cleavage of 0.02.
In the case of A51G A54G A59G A67G A96G, the self-cleavage is reported as 1.94.
Variant A47G A82U A111G has a self-cleavage of 0.01.
C46U A63G A67G A94G A114G showed a self-cleavage of 1.23.
With A51G A54G U108C the self-cleavage was 0.03.
For G48A A96G U130C, the self-cleavage was 1.57.
For A51G A66G U108C, the self-cleavage was 0.01.
U49C A56G A60G A82G gave a self-cleavage of 0.12.
Work on C45A A66G A98U yielded a self-cleavage of 2.25.
For A47G A89G U100C, the self-cleavage was 2.26.
Work on U49C U122C G136A yielded a self-cleavage of 2.71.
A47G U87C U120G gave a self-cleavage of 0.48.
A47G A51G U102C A125G showed a self-cleavage of 1.06.
For U49A A60G U103C, the self-cleavage was 0.76.
Variant U49C A90G A92G A95G U97C has a self-cleavage of 0.48.
In the case of U49C A51G U100C U130C, the self-cleavage is reported as 1.88.
G44A A54G A66U A114U A129G showed a self-cleavage of 0.02.
Work on U49C A60G U130A yielded a self-cleavage of 0.24.
Work on A51G A56G A67G U70G U97G yielded a self-cleavage of 1.18.
With U49C A116G U131C the self-cleavage was 0.57.
U49C A54G A60U A116G A140U showed a self-cleavage of 0.68.
In the case of A47G U87A A126U, the self-cleavage is reported as 0.71.
With A51G A59G U100C the self-cleavage was 1.57.
U49C A52G A55G A116G U120C showed a self-cleavage of 0.24.
Work on A47G A64G A118U yielded a self-cleavage of 0.27.
With G44A U49C U57A A111C the self-cleavage was 0.05.
U49C A68G U87C showed a self-cleavage of 1.25.
For A47G A67G A94U, the self-cleavage was 2.24.
For A51C G83A A126C, the self-cleavage was 0.86.
With A47U A62U C71U A94G the self-cleavage was 0.26.
Work on C46U A51C A52C A60G yielded a self-cleavage of 1.05.
With A51G A67G A89G the self-cleavage was 1.49.
Variant A47U U49A U124G has a self-cleavage of 0.36.
In the case of A47U A54G A69G, the self-cleavage is reported as 1.18.
With A47C A94G U108C A116G the self-cleavage was 0.01.
In the case of A51G A62U A117G, the self-cleavage is reported as 2.14.
For U49A A62U A92G U97A U102A, the self-cleavage was 0.8.
U49C A56G A68G gave a self-cleavage of 1.36.
Work on G50A A59G A92G yielded a self-cleavage of 1.72.
With A51C U72A A91G the self-cleavage was 0.15.
In the case of U49A A60G A90U, the self-cleavage is reported as 0.83.
With A51C A52U A54G A98U the self-cleavage was 2.04.
For A47U U72A A110G A111G, the self-cleavage was 0.01.
A47U A92G U122C U139A showed a self-cleavage of 0.32.
Variant G50A A59U A78U U122C U139A has a self-cleavage of 0.09.
In the case of A47G A78U A86U A140G, the self-cleavage is reported as 0.73.
For U49C A94G A118C, the self-cleavage was 0.7.
Variant U49C A55C U100A U122A has a self-cleavage of 0.35.
C46A A92G U124C gave a self-cleavage of 0.52.
For A51G A60G U120C U132A, the self-cleavage was 0.45.
With A51C A68G A92G the self-cleavage was 0.95.
Work on A47G A95G U131A yielded a self-cleavage of 2.16.
G48A A54U G83U A91G showed a self-cleavage of 0.06.
Work on A51G A66G U87C A110G yielded a self-cleavage of 0.13.
Variant U49C A54G A82U has a self-cleavage of 0.03.
For U49A A92U A126U, the self-cleavage was 0.81.
U49C A55U A89U A116G showed a self-cleavage of 0.49.
